# Data taken from the supplement of paper PMC3334620.
# The full ranking holds about 33,000 sequences; the median of “E-score (-0.5 to 0.5)” is about -0.054, and the highest 2% start at about 0.39. This is one part of the list.
# Target: Ylr278c (UniProt Q05854)
# Experiment: PBM E-score (8-mer binding enrichment) (E-score (-0.5 to 0.5)); higher = stronger / more preferred TF binding; most listed sequences are background and not binding sites
# Settings: protein concentration: 200 nM; construct: GST-DNA-binding domain
# Outline: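 Bound GST-tagged yeast transcription factors, applied at about 100-200 nM to double-stranded universal all-10-mer Agilent arrays, were detected with fluorescent anti-GST. Scans were normalised with masliner. A modified Wilcoxon-Mann-Whitney statistic, the E-score, was assigned to each ungapped eight-base word pooled with its reverse complement by the Universal PBM Analysis Suite.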
row,Sequence,PBM E-score
1,ATAATACG,0.116
2,AACGGAAA,0.374
3,CAGGCCCG,0.153
4,ACATACTG,-0.0691
5,CACTCACG,-0.00908
6,CGGTGCTC,0.183
7,AGTCTCGA,-0.174
8,CTTCTCCC,-0.0156
9,GTCCAGCA,-0.31
10,CTGATACC,-0.119
11,AGAAATCG,0.0562
12,GACTCATA,-0.164
13,CGGCGCTC,0.248
14,TCGCGTAA,0.209
15,GGACCCAC,0.167
16,CACGAGCG,-0.0956
17,GGCACAAA,0.0585
18,GACAAAGA,0.00873
19,CAGTGTAA,-0.0366
20,CACTCCTC,0.0388
21,CTACGACC,-0.182
22,AGCTCCGG,0.458
23,AACCATTA,-0.0521
24,AGGAGCTC,-0.122
25,CCGGTCTA,0.153

row,Sequence,PBM E-score
1,GAGGATGA,-0.021
2,AGACCATC,-0.209
3,CAGGTCTA,-0.14
4,ACGGAAGA,0.169
5,ATATTATA,-0.0766
6,ATACACCG,0.296
7,CGGCCTGA,0.0818
8,AAGCGGCC,0.0319
9,ATTTAGAA,-0.127
10,CCGTACCG,0.182
11,CTGGTCAA,-0.18
12,CTAGACCA,-0.261
13,CAGCCCAC,-0.163
14,ACTCTCGA,-0.24
15,AGCTAGGG,-0.0339
16,ACAGTCCG,0.243
17,CGTATTAA,0.00789
18,ACCCTATG,-0.325
19,GCGGGGCC,0.236
20,ACTAAGTC,-0.0888
21,CCCGGCCC,0.346
22,TATAAAGA,-0.114
23,ACTATCGC,-0.0819
24,CTTCTTAC,0.162
25,AAAGCTGT,0.0727

row,Sequence,PBM E-score
1,GCCAATAA,0.0194
2,AATGAACG,-0.131
3,AATACGAG,-0.102
4,AACCTACC,-0.0252
5,AACCATCC,0.0527
6,CAGGCTCC,0.206
7,AACAAAAT,-0.0226
8,AGGAGGAC,-0.294
9,CCGCTCTA,0.127
10,CAATGGGG,-0.0833
11,CTGGGGGA,-0.162
12,CATAGTTC,0.0125
13,CGAACACC,0.122
14,GCATGGCC,-0.0448
15,GCCTTCCC,0.00264
16,TCGTACGA,-0.335
17,ATATAATC,-0.0692
18,AACCACGG,0.108
19,ATTGGGCC,0.0763
20,CCCAGCGG,0.0963
21,CGGCATTA,0.405
22,CTGGGTAC,-0.195
23,AGTGGAAC,-0.0633
24,AGGTCACT,-0.209
25,ACGGTAGG,-0.0726

row,Sequence,PBM E-score
1,AGCGAACC,-0.0308
2,TCCGTAGA,0.313
3,TAAACCTA,-0.0876
4,CAGGCTTA,-0.12
5,AATCATCC,0.0555
6,AAACCGTA,0.018
7,ATTCGCTA,-0.0743
8,AGGGCGCC,0.0842
9,CATACGGC,0.157
10,GATATAGA,-0.12
11,CTCATCAA,0.0123
12,CGATAGCA,-0.0488
13,ATGATCTA,-0.072
14,CTCAACCA,-0.0458
15,CGACCCCA,0.138
16,ACGGTTGG,-0.169
17,ACCAGTAC,-0.14
18,ACTAGGCT,-0.193
19,CACGCACC,0.0301
20,AGGCTAGA,-0.205
21,CTGTCTGC,-0.222
22,CCTTCTAG,-0.271
23,ATGAGGTG,-0.151
24,TGGACACA,0.0272
25,GCAGGGTA,-0.00141

row,Sequence,PBM E-score
1,AATCCCTG,-0.0994
2,ACGATAAC,-0.0698
3,ACTACACT,-0.111
4,ATCGCTCG,0.138
5,TTTATAAA,0.165
6,ACTGGAAC,-0.12
7,AGTCGATG,-0.136
8,AAGCCAGT,-0.336
9,CGATGATC,0.00539
10,ATGTCACG,-0.073
11,AGGGAGGC,-0.0871
12,ACTCGCGG,0.177
13,AAGACGAG,-0.0694
14,GAGGCAAA,-0.0207
15,AGCGTTGA,-0.233
16,GACGGTGC,0.0201
17,GTGGCCAC,0.0307
18,CGGTTAAA,0.191
19,ACTGCATC,-0.142
20,GAGGTTGA,-0.0324
21,ATTATAAA,0.0367
22,CCTAGCGA,-0.306
23,CAGACCAC,-0.196
24,TACCGAGA,0.0909
25,AAGCCCCG,0.313

row,Sequence,PBM E-score
1,GACTCAGA,-0.161
2,AATTTGAC,0.051
3,TTGAGCAA,-0.179
4,GCAGAGAC,-0.26
5,GAGTACGC,-0.131
6,CCTCCTGC,-0.182
7,CGCATTAA,0.0928
8,AACCTTGG,-0.0903
9,CTGGACAA,-0.278
10,CAACCCAG,-0.119
11,ACCACCGA,0.11
12,CGACAAAA,0.109
13,AGTGCGAT,0.117
14,TCTGCCCA,-0.151
15,GGTTTTGA,0.0531
16,GGTTCAGA,-0.266
17,AGAGGACC,-0.227
18,CTTTTGGA,-0.0201
19,CCGATACC,0.249
20,TCCAGAGA,-0.212
21,TCAATAAA,-0.146
22,CCCTCACA,-0.277
23,ACCATCTC,-0.00358
24,CCATATGA,-0.23
25,ATAGAGGC,-0.243

row,Sequence,PBM E-score
1,ATTCAGGA,0.039
2,CTTCACGA,-0.226
3,AGTATCGC,-0.102
4,AAAGAACT,-0.108
5,GCATGGTA,0.0176
6,CTTTTCGA,-0.136
7,GTATCGAA,-0.103
8,TATTCGCA,-0.112
9,CGAACAAA,0.181
10,GACCTCAA,-0.226
11,CAGCGAAG,-0.2
12,CCCACCGC,0.225
13,ATCTCCTG,0.0929
14,ATTGTTCG,0.154
15,GCACGCCA,-0.116
16,CAACCGAG,-0.0652
17,GCTCGAAA,0.0908
18,GCGGCGCC,0.289
19,TCTCTAAA,0.00577
20,AGGTAGGA,-0.132
21,GACCTAAA,0.0762
22,GAAAGCAA,0.145
